Measured values reported in the supplement of paper PMC7826260.
Some of the results follow. One pool of 16,384 single-stranded DNAs met each Rep nickase domain in vitro for 1 h at 37 °C with 3 µM enzyme; only the middle of the 90-letter strands is printed. Uncut reads are compared with the no-enzyme pool on a log2 scale; strong cutting gives strongly negative numbers. There is no active / inactive call. Reads are scaled to the total; where an enzyme cuts many sequences, the uncut ones exceed 0.

What was measured:
Assay in all cases: uncleaved DNA left, log2 of reads against the no-enzyme library (log2 ratio); higher = less cleavage (more negative = more Rep cleavage of the k-mer); sequences stand for … in CTCGTCCG…ACCGGAGA
[1] = tested on: T1, Rep nickase domain of Muscovy duck circovirus
T1 sequence (Rep 1-111, printed without the tag): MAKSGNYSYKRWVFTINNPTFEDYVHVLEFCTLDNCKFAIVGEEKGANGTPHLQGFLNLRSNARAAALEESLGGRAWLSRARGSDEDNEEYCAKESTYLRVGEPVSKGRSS
Protocol: (§1)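 A pool of 90-nt single-stranded DNAs with seven random bases just before the constant AC of the nick site (name = the seven bases) was cut by 3 µM recombinant His6-SUMO-tagged Rep nickase domain (300 nM DNA, 50 mM HEPES pH 8.0, 50 mM NaCl, 1 mM MnCl2, 1 h, 37 °C, three replicates). Uncut DNA was amplified and sequenced.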

[2] = tested on: T2, Rep nickase domain of banana bunchy top virus
T2 sequence (Rep 1-94, printed without the tag): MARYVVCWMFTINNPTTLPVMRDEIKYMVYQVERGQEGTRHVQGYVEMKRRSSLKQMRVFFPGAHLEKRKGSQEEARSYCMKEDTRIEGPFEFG
Protocol: as §1

[3] = tested on: T3, Rep nickase domain of cabbage leaf curl virus
T3 sequence (Rep 1-116, printed without the tag): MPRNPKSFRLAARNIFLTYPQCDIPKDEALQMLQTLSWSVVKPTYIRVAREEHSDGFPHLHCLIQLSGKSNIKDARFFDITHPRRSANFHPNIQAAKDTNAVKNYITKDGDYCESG
Protocol: as §1

[4] = tested on: T4, Rep nickase domain of chickpea chlorotic dwarf virus
T4 sequence (Rep 1-124, printed without the tag): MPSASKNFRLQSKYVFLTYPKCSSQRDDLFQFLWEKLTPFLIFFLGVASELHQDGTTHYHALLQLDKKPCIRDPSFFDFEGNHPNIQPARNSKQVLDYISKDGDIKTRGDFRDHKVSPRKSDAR
Protocol: as §1

[5] = tested on: T5, Rep nickase domain of faba bean necrotic yellows virus
T5 sequence (Rep 1-98, printed without the tag): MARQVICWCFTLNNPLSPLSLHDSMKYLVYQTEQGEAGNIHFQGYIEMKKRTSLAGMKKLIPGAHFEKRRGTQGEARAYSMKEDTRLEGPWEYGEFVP
Protocol: as §1

[6] = tested on: T6, Rep nickase domain of maize striate mosaic virus
T6 sequence (Rep 1-117, printed without the tag): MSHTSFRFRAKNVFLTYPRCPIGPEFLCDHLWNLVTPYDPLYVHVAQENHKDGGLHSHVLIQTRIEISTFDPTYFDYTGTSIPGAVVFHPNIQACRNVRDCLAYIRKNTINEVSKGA
Protocol: as §1

[7] = tested on: T7, Rep nickase domain of porcine circovirus 2
T7 sequence (Rep 2-116, printed without the tag): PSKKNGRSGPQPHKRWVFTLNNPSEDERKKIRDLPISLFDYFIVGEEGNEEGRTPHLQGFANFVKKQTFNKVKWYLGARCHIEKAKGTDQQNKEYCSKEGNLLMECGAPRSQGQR
Protocol: as §1

[8] = tested on: T8, Rep nickase domain of tomato golden mosaic virus
T8 sequence (Rep 1-124, printed without the tag): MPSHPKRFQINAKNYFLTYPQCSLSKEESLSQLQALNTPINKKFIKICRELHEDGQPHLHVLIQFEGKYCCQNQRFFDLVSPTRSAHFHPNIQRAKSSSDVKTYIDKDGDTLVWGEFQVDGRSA
Protocol: as §1

[9] = tested on: T9, Rep nickase domain of tomato yellow leaf curl virus
T9 sequence (Rep 1-136, printed without the tag): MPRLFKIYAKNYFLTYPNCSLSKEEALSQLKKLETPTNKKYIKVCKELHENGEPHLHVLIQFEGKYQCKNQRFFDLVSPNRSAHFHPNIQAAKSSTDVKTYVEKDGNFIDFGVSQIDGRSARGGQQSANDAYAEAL
Protocol: as §1

[10] = tested on: T10, Rep nickase domain of wheat dwarf virus
T10 sequence (Rep 1-137, printed without the tag): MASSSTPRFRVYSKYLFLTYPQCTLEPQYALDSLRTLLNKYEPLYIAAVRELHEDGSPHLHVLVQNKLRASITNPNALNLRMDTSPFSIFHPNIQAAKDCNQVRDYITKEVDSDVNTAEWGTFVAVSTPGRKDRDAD
Protocol: as §1

Row | Sequence | uncleaved DNA left (log2) [1] | uncleaved DNA left (log2) [2] | uncleaved DNA left (log2) [3] | uncleaved DNA left (log2) [4] | uncleaved DNA left (log2) [5] | uncleaved DNA left (log2) [6] | uncleaved DNA left (log2) [7] | uncleaved DNA left (log2) [8] | uncleaved DNA left (log2) [9] | uncleaved DNA left (log2) [10]
1 | ATACGTA | -0.0738 | -0.0968 | -0.143 | -0.956 | 0.0341 | -0.598 | -0.0613 | 0.0325 | 0.0535 | -0.0358
2 | CTGCTTA | 0.0719 | -0.185 | -0.108 | -1.14 | -0.056 | -0.786 | -0.22 | -0.186 | 0.0127 | -0.199
3 | CATTCCG | 0.000447 | -0.0104 | -0.532 | 0.818 | 0.0877 | -0.253 | 0.209 | -0.131 | 0.108 | -0.0126
4 | CTAATAC | -0.731 | -0.03 | 0.0727 | -1.14 | 0.0401 | -0.825 | -2.37 | -0.00643 | -0.145 | -0.0226
5 | GGTATTG | 0.0329 | 0.0597 | 0.0472 | 0.445 | 0.00449 | 0.182 | 0.0643 | -0.0307 | 0.000677 | 0.0171
6 | TATTCCA | -2.78 | -1.34 | -0.137 | -2.36 | -0.0315 | -0.411 | -2.26 | -0.124 | 0.119 | -0.148
7 | CTCACAG | -0.0497 | 0.0476 | -0.747 | -0.956 | -0.0604 | -0.869 | 0.237 | 0.0684 | 0.0529 | -0.124
8 | CTATCTG | -0.108 | -0.0943 | -0.0816 | 0.192 | -0.0815 | -0.0444 | -0.0287 | -0.077 | -0.0644 | -0.0103
9 | GCGATTC | -0.142 | -0.0541 | 0.00678 | 0.377 | 0.0359 | 0.203 | -0.0426 | -0.204 | 0.00245 | -0.052
10 | GCCGTTG | -0.0169 | -0.228 | -0.234 | -0.238 | -0.0685 | -0.736 | -0.0664 | -0.0951 | -0.117 | -0.122
11 | CGACGGA | -0.0508 | 0.0159 | 0.0197 | 0.621 | -0.0452 | 1.44 | 0.0423 | -0.0563 | -0.0833 | -0.0272
12 | CAGACTG | 0.118 | 0.103 | 0.0821 | 0.822 | 0.0433 | 1.81 | 0.108 | 0.0742 | -0.095 | 0.115
13 | AAGAAGG | 0.0393 | -0.0347 | 0.0224 | 0.396 | 0.0199 | -0.398 | -0.0178 | 0.0929 | -0.0547 | -0.0144
14 | TCTCGGG | -0.0522 | -0.123 | 0.0264 | 0.185 | -0.167 | -0.145 | -0.0761 | -0.0616 | -0.195 | -0.164
15 | TATACGC | -0.0784 | -0.1 | 0.00757 | -0.52 | 0.0619 | -0.534 | 0.122 | -0.0866 | -0.000615 | -0.136
16 | CGAGCAG | -0.113 | 0.0329 | -0.132 | 0.0039 | -0.0613 | -0.296 | -0.0119 | 0.00579 | -0.0291 | 0.0237
17 | CACGCGC | -0.0548 | -0.0793 | -0.771 | -0.176 | 0.0469 | -0.846 | 0.151 | -0.0882 | -0.118 | -0.117
18 | GACCGAA | 0.1 | 0.0233 | 0.0973 | 0.306 | -0.0932 | 0.342 | -0.0831 | 0.037 | 0.0145 | -0.0203
19 | ATACCGA | 0.0123 | -0.0244 | -0.402 | -0.624 | -0.0313 | -1.05 | 0.0234 | -0.0544 | -0.11 | -0.0912
20 | AAGTTTG | 0.144 | 0.0313 | -0.213 | -0.32 | -0.0368 | -0.512 | -0.859 | 0.176 | -0.0443 | 0.0654
21 | GAAAAAC | 0.115 | 0.119 | 0.35 | 0.457 | 0.00206 | 0.37 | 0.128 | 0.0929 | 0.105 | 0.137
22 | CCATGTC | -0.0383 | -0.134 | -0.37 | -0.422 | -0.0287 | -1.28 | -0.0572 | -0.127 | -0.00871 | -0.237
23 | CCACAAT | 0.0444 | 0.0411 | -0.372 | -2.04 | -0.00138 | -0.831 | -0.365 | 0.0376 | -0.154 | -0.047
24 | CCCACTC | -0.0194 | -0.0619 | 0.14 | -0.62 | 0.0153 | -0.506 | 0.035 | -0.0552 | 0.00989 | 0.0819
25 | CCCCTTA | 0.0412 | -0.039 | 0.14 | -1.01 | 0.105 | -0.264 | -0.201 | -0.0539 | -0.208 | -0.0474
26 | CCGCACC | -0.142 | -0.178 | -0.19 | -0.416 | -0.0606 | -0.641 | -0.185 | -0.17 | -0.154 | -0.0606
27 | AGCACGA | -0.0386 | -0.000344 | -0.0355 | 0.152 | -0.00798 | 0.194 | -0.0166 | 0.0411 | -0.0802 | 0.0377
28 | TTCACAC | 0.0284 | 0.06 | 0.271 | -0.162 | 0.0146 | -0.11 | 0.0547 | -0.00699 | 0.126 | 0.0925
29 | TTGGCAA | 0.116 | 0.0802 | 0.262 | 0.605 | 0.102 | 0.39 | 0.157 | 0.0192 | 0.0279 | 0.144
30 | GAGAAAC | 0.00707 | 0.0821 | 0.335 | 0.951 | -0.000296 | 1.21 | 0.0535 | 0.022 | 0.0808 | 0.14
